Experimental findings from patent US10299477B2 (priority 2015, dated 2019) are described below.

For the test, the system named is Phytophthora infestans. Format: in vivo. Conditions: evaluated 5-10 days after inoculation; for Test F (control value class, late blight on tomato): 250 ppm, sprayed 2.5 ml/pot before inoculation; for Test F (control value class): Late blight on tomato, 250 ppm spray, 2.5 ml/pot.

Consider `Cc1cc(-c2ccc(F)cc2Cl)c(-c2c(F)cc(F)cc2F)n(C)c1=O` [Compound 613], for which the “Test F (control value class, late blight on tomato)” value is “L (L shows 50% or less of control values)”. In the case of `COc1cc(F)c(-c2c(-c3cc(F)ccc3Cl)cc(C)c(=O)n2C)c(F)c1` [Compound 759], the “Test F (control value class)” value was “L (L shows 50% or less of control values)”.

On to `CCn1c(-c2c(F)cc(F)cc2F)c(-c2cc(F)cc(F)c2)cc(Br)c1=O` [Compound 797], for which the “Test F (control value class)” value was “L (L shows 50% or less of control values)”. On to `CCn1c(-c2c(F)cc(F)cc2F)c(-c2cc(O)ccc2Cl)cc(Cl)c1=O` [Compound 792], for which the “Test F (control value class)” value was “H (H shows more than 50% of control values)”. Regarding `CCn1c(-c2c(F)cc(F)cc2F)c(-c2cc(OC)ccc2Cl)cc(C)c1=O` [Compound 769], the “Test F (control value class)” value is “L (L shows 50% or less of control values)”. On to `CCn1c(-c2c(F)cc(F)cc2F)c(-c2cc(F)c(F)cc2F)cc(Cl)c1=O` [Compound 636], for which the “Test F (control value class, late blight on tomato)” value is on record as “L (L shows 50% or less of control values)”.

`CCn1c(-c2c(F)cc(C)cc2F)c(-c2cc(F)ccc2Cl)cc(Br)c1=O` [Compound 709]: the “Test F (control value class, late blight on tomato)” value was “L (L shows 50% or less of control values)”. On the same count and under the same terms, under `CCn1c(-c2c(F)cc(OC)cc2F)c(-c2cccc(OC)c2Cl)cc(Cl)c1=O` [Compound 640] stands “L (L shows 50% or less of control values)”.

With `CCOc1cc(F)c(-c2c(-c3cccc(F)c3C)ccc(=O)n2CC)c(F)c1` [Compound 698], the “Test F (control value class, late blight on tomato)” value is given as “L (L shows 50% or less of control values)”.

As for `CCOc1ccc(Cl)c(-c2cc(Cl)c(=O)n(CC)c2-c2c(F)cc(OC)cc2F)c1` [Compound 796], the “Test F (control value class)” value is recorded as “L (L shows 50% or less of control values)”. For `CCOc1cc(F)c(-c2c(-c3cccc(F)c3Cl)cc(C)c(=O)n2CC)c(F)c1` [Compound 660], the “Test F (control value class, late blight on tomato)” value is reported as “H (H shows more than 50% of control values)”. Turning to `CCOc1cc(F)c(-c2c(-c3ccc(F)cc3Cl)ccc(=O)n2C)c(F)c1` [Compound 612], the “Test F (control value class, late blight on tomato)” value was “H (H shows more than 50% of control values)”.

Regarding `CCn1c(-c2c(F)cc(OC)cc2F)c(-c2cc(F)cc(F)c2)ccc1=O` [Compound 790], the “Test F (control value class)” value was “L (L shows 50% or less of control values)”. With `Cn1c(-c2c(F)cc(Cl)cc2F)c(-c2cc(F)ccc2Cl)cc(Cl)c1=O` [Compound 605], the “Test F (control value class, late blight on tomato)” value is given as “L (L shows 50% or less of control values)”. Still for that read-out and setting: the result for `CCn1c(-c2c(F)cc(F)cc2F)c(-c2ccc(C)cc2Cl)cc(Cl)c1=O` [Compound 628] reads “L (L shows 50% or less of control values)”. The same measure, in the same setting: the result for `COc1cc(F)c(-c2c(-c3cc(F)cc(F)c3Cl)cc(Br)c(=O)n2C)c(F)c1` [Compound 717] reads “L (L shows 50% or less of control values)”.

For the compound `CCn1c(-c2c(F)cc(OC)cc2F)c(-c2cc(OC)ccc2Cl)cc(C)c1=O` [Compound 771], the “Test F (control value class)” value is recorded as “L (L shows 50% or less of control values)”. Consider `CCn1c(-c2c(F)cc(OC)cc2F)c(-c2cccc(F)c2C)cc(Br)c1=O` [Compound 711], for which the “Test F (control value class, late blight on tomato)” value was “L (L shows 50% or less of control values)”. Regarding `CCn1c(-c2c(F)cc(F)cc2F)c(-c2cc(OC)cc(F)c2Cl)cc(Cl)c1=O` [Compound 617], the “Test F (control value class, late blight on tomato)” value was “L (L shows 50% or less of control values)”.

`CCn1c(-c2c(F)cc(F)cc2F)c(-c2cc(F)cc(F)c2)cc(Cl)c1=O` [Compound 791]: the “Test F (control value class)” value is “L (L shows 50% or less of control values)”. As for `CCn1c(-c2c(F)cc(C)cc2F)c(-c2cc(F)ccc2Cl)cc(C)c1=O` [Compound 710], the “Test F (control value class, late blight on tomato)” value is reported as “L (L shows 50% or less of control values)”. `CCn1c(-c2c(F)cc(F)cc2F)c(-c2cc(F)cc(F)c2Cl)cc(Br)c1=O` [Compound 688]: the “Test F (control value class, late blight on tomato)” value is “L (L shows 50% or less of control values)”. The same measure, in the same setting: the result for `CCOc1cc(F)c(-c2c(-c3cccc(OC)c3Cl)cc(C)c(=O)n2C)c(F)c1` [Compound 673] reads “L (L shows 50% or less of control values)”; that for `CCn1c(-c2c(F)cc(F)cc2F)c(-c2cc(OC)cc(OC)c2Cl)ccc1=O` [Compound 696], “L (L shows 50% or less of control values)”; that for `CCn1c(-c2c(F)cc(OC)cc2F)c(-c2cccc(F)c2C)ccc1=O` [Compound 697], “L (L shows 50% or less of control values)”. With `CCOc1cc(F)c(-c2c(-c3cccc(OC)c3Cl)ccc(=O)n2CC)c(F)c1` [Compound 634], the “Test F (control value class, late blight on tomato)” value is on record as “H (H shows more than 50% of control values)”. Same read-out and setting: under `CCn1c(-c2c(F)cc(F)cc2F)c(-c2ccccc2Br)cc(Cl)c1=O` [Compound 652] stands “L (L shows 50% or less of control values)”; under `CCn1c(-c2c(F)cc(F)cc2F)c(-c2cc(F)c(F)cc2F)ccc1=O` [Compound 635], “L (L shows 50% or less of control values)”. Take `CCn1c(-c2c(F)cc(OC)cc2F)c(-c2cc(F)cc(F)c2Cl)cc(Cl)c1=O` [Compound 666]: the “Test F (control value class, late blight on tomato)” value was “L (L shows 50% or less of control values)”. Same read-out and setting: under `CCn1c(-c2c(F)cc(F)cc2F)c(-c2cccc(F)c2C)cc(Br)c1=O` [Compound 682] stands “L (L shows 50% or less of control values)”. The same measure, in the same setting: the result for `CCn1c(-c2c(F)cc(OC)cc2F)c(-c2ccccc2Cl)cc(Br)c1=O` [Compound 686] reads “L (L shows 50% or less of control values)”; that for `CCn1c(-c2c(F)cc(F)cc2F)c(-c2ccccc2Cl)cc(C)c1=O` [Compound 687], “L (L shows 50% or less of control values)”. Take `CCn1c(-c2c(F)cc(OC)cc2F)c(-c2cccc(OC)c2Cl)cc(C)c1=O` [Compound 644]: the “Test F (control value class, late blight on tomato)” value is recorded as “L (L shows 50% or less of control values)”. For `CCn1c(-c2c(F)cc(OC)cc2F)c(-c2ccccc2Br)ccc1=O` [Compound 667], the “Test F (control value class, late blight on tomato)” value is reported as “L (L shows 50% or less of control values)”. `CCOc1cc(F)c(-c2c(-c3cccc(OC)c3Cl)cc(Br)c(=O)n2CC)c(F)c1` [Compound 643]: the “Test F (control value class, late blight on tomato)” value was “L (L shows 50% or less of control values)”. On to `Cc1cc(-c2cc(F)ccc2Cl)c(-c2c(F)cc(F)cc2F)n(C)c1=O` [Compound 758], for which the “Test F (control value class)” value was “H (H shows more than 50% of control values)”.

For `Cn1c(-c2c(F)cc(Cl)cc2F)c(-c2cc(F)ccc2Cl)cc(Br)c1=O` [Compound 606], the “Test F (control value class, late blight on tomato)” value is on record as “L (L shows 50% or less of control values)”. The same measure, in the same setting: the result for `COc1cc(F)c(-c2c(-c3cccc(OC)c3Cl)cc(Br)c(=O)n2C)c(F)c1` [Compound 669] reads “L (L shows 50% or less of control values)”. In the case of `CCn1c(-c2c(F)cccc2F)c(-c2cccc(OC)c2Cl)cc(Cl)c1=O` [Compound 783], the “Test F (control value class)” value is given as “L (L shows 50% or less of control values)”. The same measure, in the same setting: the result for `COc1cc(F)c(-c2c(-c3cccc(OC)c3Cl)cc(Cl)c(=O)n2C)c(F)c1` [Compound 788] reads “L (L shows 50% or less of control values)”; that for `CCn1c(-c2c(F)cc(OC)cc2F)c(-c2ccccc2)cc(Cl)c1=O` [Compound 773], “L (L shows 50% or less of control values)”.

With `COc1cc(F)c(-c2c(-c3cc(F)c(F)cc3F)cc(Cl)c(=O)n2C)c(F)c1` [Compound 655], the “Test F (control value class, late blight on tomato)” value was “L (L shows 50% or less of control values)”. Consider `CCn1c(-c2c(F)cc(F)cc2F)c(-c2cc(OC)cc(F)c2Cl)ccc1=O` [Compound 615], for which the “Test F (control value class, late blight on tomato)” value is recorded as “L (L shows 50% or less of control values)”. In the case of `CCOc1cc(F)c(-c2c(-c3cccc(OC)c3Cl)cc(Br)c(=O)n2C)c(F)c1` [Compound 670], the “Test F (control value class, late blight on tomato)” value is listed as “H (H shows more than 50% of control values)”. Regarding `CCn1c(-c2c(F)cc(F)cc2F)c(-c2ccccc2Br)ccc1=O` [Compound 651], the “Test F (control value class, late blight on tomato)” value is on record as “L (L shows 50% or less of control values)”. In the case of `COc1cc(F)c(-c2c(-c3cc(OC)ccc3Cl)cc(Cl)c(=O)n2C)c(F)c1` [Compound 722], the “Test F (control value class, late blight on tomato)” value is “L (L shows 50% or less of control values)”. Still for that read-out and setting: under `CCn1c(-c2c(F)cc(OC)cc2F)c(-c2cc(F)cc(F)c2Cl)cc(C)c1=O` [Compound 714] stands “L (L shows 50% or less of control values)”; under `CCn1c(-c2c(F)cc(F)cc2F)c(-c2ccc(C)cc2Cl)ccc1=O` [Compound 626], “L (L shows 50% or less of control values)”. On to `COc1cc(F)c(-c2c(-c3cc(F)cc(F)c3Cl)ccc(=O)n2C)c(F)c1` [Compound 676], for which the “Test F (control value class, late blight on tomato)” value was “L (L shows 50% or less of control values)”. Turning to `CCn1c(-c2c(F)cc(OC)cc2F)c(-c2cccc(F)c2C)cc(Cl)c1=O` [Compound 699], the “Test F (control value class, late blight on tomato)” value is recorded as “L (L shows 50% or less of control values)”. In the case of `CCOc1cc(F)c(-c2c(-c3ccccc3Cl)cc(Br)c(=O)n2CC)c(F)c1` [Compound 703], the “Test F (control value class, late blight on tomato)” value was “L (L shows 50% or less of control values)”. Still for that read-out and setting: the result for `CCOc1cc(F)c(-c2c(-c3ccccc3Cl)cc(Cl)c(=O)n2CC)c(F)c1` [Compound 684] reads “L (L shows 50% or less of control values)”; that for `COc1cc(F)c(-c2c(-c3cccc(OC)c3Cl)cc(C)c(=O)n2C)c(F)c1` [Compound 672], “L (L shows 50% or less of control values)”; that for `CCn1c(-c2c(F)cc(OC)cc2F)c(-c2ccccc2Cl)cc(C)c1=O` [Compound 701], “L (L shows 50% or less of control values)”.
